Source: PubChem BioAssay AID1346428 (National Center for Advancing Translational Sciences (NCATS), 2018)
Values joined by “and” are separate entries in the source; they are usually repeats but may differ in a detail not shown here. Identical values can stand only once. The whole screen tested about 48,000 compounds, of which about 1,200 (2.5%) were called active. Not shown: some 2% with an inconclusive outcome.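 The calls were made as follows: active = activation of at least 60% and not above a set upper limit (about 1 call in 100 departs from these limits); inconclusive = activation of 40% to 60%, or above that upper limit; inactive = activation under 40%.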 Some of the results follow.

What follows are compounds tested against Probable G-protein coupled receptor 32 (Homo sapiens) (UniProt O75388) (assay: qHTS for Agonists of Human Resolvin D1 Receptor DRV1). Settings: CHO-K1 GPR32 beta-arrestin PathHunter luminescence, 90 min; at 76.9 µM; hits give high values; zero percent set by DMSO-only wells.
Sequence of UniProt O75388 (O75388 whole entry, looked up): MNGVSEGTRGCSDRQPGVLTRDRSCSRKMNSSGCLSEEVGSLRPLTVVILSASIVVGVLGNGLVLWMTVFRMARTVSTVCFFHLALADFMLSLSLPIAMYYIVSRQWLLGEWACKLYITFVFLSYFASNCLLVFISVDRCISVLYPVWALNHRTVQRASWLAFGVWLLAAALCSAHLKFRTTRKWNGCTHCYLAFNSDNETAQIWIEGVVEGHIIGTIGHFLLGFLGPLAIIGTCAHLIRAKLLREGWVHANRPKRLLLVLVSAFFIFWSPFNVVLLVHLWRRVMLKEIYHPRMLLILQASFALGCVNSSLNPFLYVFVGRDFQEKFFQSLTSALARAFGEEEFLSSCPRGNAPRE
Outline: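 Cells are plated overnight, treated with compounds in DMSO for 90 minutes at 37 °C, and developed with PathHunter detection reagent for 1 hour before luminescence is read; signal reflects beta-arrestin binding to GPR32 in engineered CHO-K1 cells.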
Also: 0% is about no effect.

Row | Structure (SMILES) | activation
1 | CCCSc1nc2sc3c(c2c(=O)n1-c1ccc(C)c(Cl)c1)CCN(C(C)=O)C3 | inactive: -20.3%
2 | CSc1nnc2n(-c3cccc(C)c3)c(=O)c3c4c(sc3n12)CCCC4 | inactive: 24.4%
3 | Cc1cccn2c(=O)cc(COc3cccc(NC(=O)c4cccc(Cl)c4)c3)nc12 | inactive: -15.9%
4 | O=C(Nc1ccccc1F)c1oc2ccccc2c1NC(=O)c1c(F)cccc1F | inactive: 14.5%
5 | Cc1cccc(-c2nnc(SCC(=O)N3CCCCC3)o2)c1 | inactive: 0.219%
6 | COc1ccc(S(=O)(=O)c2c(O)c(C)cc(NC(=O)c3ccccc3)c2C(C)C)cc1 | inactive: -27.2%
7 | COc1ccccc1N1CCN(C(=O)c2ccc(Nc3nc4ccccc4n4nnnc34)cc2)CC1 | inactive: -17.8%
8 | CCn1c(=O)n(CC)c2cc(N3CCCC3)c(NC(=O)Nc3cc(C)cc(C)c3)cc21 | inactive: -26.3%
9 | Cc1ccc(CNC(=O)c2nn(C)c3c2CSc2ccc(C)cc2-3)cc1 | inactive: -5.56%
10 | COC(=O)c1ccccc1NC(=O)c1ccc(=O)n(Cc2cccc(C)c2)c1 | inactive: -1.29%
11 | Cc1ccc(CCNC(=O)CSCc2nc(-c3ccc(C)cc3)oc2C)cc1 | inactive: 22%
12 | N#Cc1cccc(NC(=O)C2CCN(c3nc(-c4ccc(Cl)cc4)no3)CC2)c1 | inactive: 18.1%
13 | COc1cc(-c2nc(C(N)=O)c3c(n2)n(-c2cccc(C)c2)c(=O)n3C)cc(OC)c1OC | inactive: -1.79%
14 | CCn1c(CN2CCCCC2)nc2cc(NC(=O)c3cccc([N+](=O)[O-])c3)ccc21 | inactive: -8.64%
15 | Cc1c(C(=O)Nc2cccc(-c3nc4ccccc4s3)c2)oc2ccc(F)cc12 | inactive: 6.23%
16 | CC(C)c1ccc(NC(=O)Cn2c3ncccc3c(=O)n2-c2ccccc2)cc1 | inactive: 3.74%
17 | CCOc1ccc(-c2nnc(SCC(=O)Nc3cc(C)ccc3OC)o2)cc1 | inactive: 30%
18 | CCOC(=O)c1c(NC(=O)c2ccc(S(=O)(=O)N(CC)CC)cc2)sc2c1CCCCC2 | inactive: -14.5%
19 | CCc1nn(CC(=O)NCCOC)c(=O)c2cc3cc(F)ccc3n12 | inactive: -1.26%
20 | CCN(CC)C(=O)CSc1nc2cc3c(cc2c(=O)n1CCCC(=O)NCc1ccc(OC)cc1)OCO3 | inactive: -10.9%
21 | Cc1ccc(CCNC(=O)CN(c2ccc(C(C)C)cc2)S(=O)(=O)c2c(C)nn(C)c2C)cc1 | inactive: -16.9%

Row | Structure (SMILES) | activation
22 | CN(C)c1ccc(C(CNS(=O)(=O)c2ccc(F)cc2F)N2CCOCC2)cc1 (stereo not drawn) | inactive: -23.9%
23 | CCc1ccc(CN(Cc2cn[nH]c2-c2ccc(OC)cc2)C(=O)Nc2ccc(Br)cc2)cc1 | inactive: 1.75%
24 | CCn1c(SCC(=O)Nc2c(C)cccc2C)nnc1-c1nonc1NC(C)=O | inactive: -32.8%
25 | O=C(NCCC1=CCCCC1)c1ccc2c(c1)N(Cc1ccccc1)C(=O)c1ccccc1S2=O (stereo not drawn) | inactive: -0.22%
26 | Cc1ccc(C(=O)N2CCCCC2CCN2CCCCC2)cc1 (stereo not drawn) | inactive: -3.53%
27 | COc1ccc(-c2csc(-c3c(N)c(C(=O)c4ccccc4)n4ccccc34)n2)cc1OC | inactive: -5.33%
28 | Cc1ccc(O)cc1 | inactive: -2.27%
29 | CCS(=O)(=O)c1cccc(C(=O)Nc2ccc(-c3nc4ccccc4s3)c(O)c2)c1 | active: 61%
30 | Cc1cccc(NC(=O)Cn2c(=O)c3cccn3c3ccccc32)c1C | inactive: -5.56%
31 | COc1cc(NS(=O)(=O)c2cc(Br)cc3c2N(C(=O)C2CC2)CC3)cc(OC)c1 | inactive: 3.42%
32 | CN(C)c1nc(N(C)C)nc(N(C)C)n1 | inactive: -9.63% and inactive: -0.888%
33 | COc1ccccc1N1CCN(C(=O)CSc2nc3ccccc3nc2Cc2ccc(C)cc2)CC1 | inactive: -30.7%
34 | CCN(CCCNC(=O)c1nn(-c2ccc(OC)c(Cl)c2)c(=O)c2c1c1ccccc1n2C)c1ccccc1 | inactive: -6.77%
35 | COc1ccc(OC)c(CNC(=O)CSc2c3c(nc4cc(Cl)ccc24)CCCC3)c1 | inactive: -22.6%
36 | Cc1ccc(CN2CCN(C3CCN(S(=O)(=O)N(C)C)CC3)C(=O)C2=O)cc1 | inactive: -26.5%
37 | CC1CCN(C(=O)Cn2c(SCC(=O)Nc3ccc(F)cc3)nc3ccccc32)CC1 | inactive: -9.02%
38 | O=C(CSc1nc(-c2ccc(F)cc2)[nH]c1-c1ccc(F)cc1)Nc1ccc2c(c1)OCCO2 | inactive: 9.64%
39 | COc1ccc(Cc2nc3ccc(C(=O)NCc4ccccc4Cl)cc3o2)cc1 | inactive: -11.7%
40 | Cc1ccc(C)c(N2CCN(C(=O)c3cnn(-c4ccccc4Cl)c3C3CCN(C(=O)OC(C)(C)C)CC3)CC2)c1 | inactive: -3.68%
41 | O=C1OC(C(=O)Nc2cc(C(F)(F)F)ccc2Cl)Cc2ccccc21 (stereo not drawn) | inactive: 35.5%
42 | CCc1ccc(NC(=O)C(CC)n2c(=O)c(-c3ccccc3NC(C)=O)nc3ccccc32)cc1 (stereo not drawn) | inactive: -1.05%

Row | Structure (SMILES) | activation
43 | O=C(COc1ccc(Cl)cc1)Nc1ccccc1OCc1cc(=O)n2ccccc2n1 | inactive: 7.17%
44 | CCOc1ccc(CC(=O)NCC(c2cccs2)S(=O)(=O)c2ccc(F)c(C)c2)cc1 (stereo not drawn) | inactive: -5.19%
45 | CCN(CC)c1ccc(NC(=O)C2CCN(S(=O)(=O)c3cnc[nH]3)CC2)c(C)c1 | inactive: 7.77%
46 | CCOC(=O)c1c(C)c(-c2ccccc2)n(CC(=O)NC(CC)Cc2ccccc2)c1C (stereo not drawn) | inactive: -2.09%
47 | Cc1ccc(NC(=O)C2CC(=O)N(c3ccc(OC(C)C)cc3)C2)cc1 (stereo not drawn) | inactive: -11.1%
48 | COc1cccc(C(=O)Nc2ccc3oc(-c4cccc5c(Br)cccc45)nc3c2)c1 | inactive: 16.2%
49 | Cc1ccc(Nc2nnc(-c3ccc(C)c(S(N)(=O)=O)c3)c3ccccc23)cc1 | inactive: -14.3%
50 | COc1ccccc1N1CCN(C(=O)c2cnn(-c3ccc(F)cc3F)c2C2CCNCC2)CC1 | inactive: 20%
51 | CCc1ccccc1N(C)C(=O)c1ccc2c(=O)n3c(nc2c1)CCCCC3 | inactive: -12.9%
52 | COc1ccc(S(=O)(=O)NCC(c2ccc(N(C)C)cc2)N2CCc3ccccc32)cc1OC (stereo not drawn) | inactive: -32.9%
53 | CCOC(=O)c1c(NC(=O)c2ccccc2OCC)sc2c1CCC(CC)C2 (stereo not drawn) | inactive: -11.6%
54 | COc1ccc(N2CCN(C(=O)CCc3c(C)nc4cc(-c5ccc(OC)cc5OC)nn4c3C)CC2)cc1 | inactive: -9.11%
55 | Cc1cccc(OCC(=O)Nc2cccc3cccnc23)c1C | inactive: -20.1%
56 | CCCOc1ccc(C2C(=O)N(C3CCCCCC3)CC(=O)N2CCC)cc1OC (stereo not drawn) | inactive: -14.6%
57 | CN(C)S(=O)(=O)c1ccc(C(=O)NCCSc2c(-c3ccc(Cl)cc3)[nH]c3ccccc23)cc1 | inactive: -15.7%
58 | CC(C)c1ccc(N2C(=O)CSC23C(=O)N(Cc2ccccc2)c2ccccc23)cc1 (stereo not drawn) | inactive: -21.4%
59 | Cc1cc(NS(=O)(=O)c2ccc3oc(=O)c4ncn(C)c4c3c2)ccc1Br | inactive: -7.61%
60 | Cc1ccc(NC(=O)Cn2c(=O)n(Cc3nc(C)no3)c(=O)c3cc4c(cc32)OCO4)cc1 | inactive: -5.04%
61 | COc1ccc(NC(=O)N2CCN(S(=O)(=O)c3ccc4c(ccn4C)c3)CC2)c(OC)c1 | inactive: -0.36%
62 | O=C(/C=C/c1ccccc1Cl)Nc1nc(-c2cccs2)ns1 | inactive: -5.08%
63 | O=C(Cn1cc(SCc2c(F)cccc2Cl)c2ccccc21)N1CCCC1 | inactive: 10.5%

Row | Structure (SMILES) | activation
64 | COc1cccc(CNC(=O)C(C)n2c(=O)cc(-c3ccccc3)c3c(C)nn(C)c32)c1 (stereo not drawn) | inactive: -6.39%
65 | Cc1nc2ccn(Cc3ccco3)c(=O)c2cc1C(=O)N1CCN(c2ccc(F)cc2)CC1 | inactive: -35.6%
66 | CN(Cc1ccccc1)C(=O)CSc1nc(-c2ccc(F)cc2)cc(C(F)(F)F)n1 | inactive: -4.81%
67 | Cc1ccc(/C=C(\C#N)c2nc3ccccc3c(=O)[nH]2)cc1 | inactive: -10.2%
68 | CCCC(CCC)C(=O)NC1CC(=O)N(c2ccc3c(c2)OCCO3)C1 (stereo not drawn) | inactive: -3.69%
69 | O=C(Nc1nnc(S(=O)(=O)N2CCc3ccccc32)s1)c1cccc(Cl)c1 | inactive: 44.1%
70 | CCOc1ccc(CC(=O)Nc2c(C(=O)c3ccccc3)oc3ccc(OC)cc23)cc1OCC | inactive: -11.6%
71 | CCc1ccccc1NC(=O)Cn1c(=O)n(Cc2ccc(OC)cc2)c(=O)c2oc3ccccc3c21 | inactive: 0.204%
72 | COCCOC(=O)c1c(-c2ccccc2)c(-c2ccccc2)nn(C)c1=O | inactive: -13%
73 | CCCCOc1ccc(Cn2c(=O)oc3ccc(C)cc32)cc1OC | inactive: -28%
74 | CCc1nnc(NC(=O)c2nc(SCc3ccccc3F)ncc2Cl)s1 | inactive: -8.18%
75 | COc1ccc2c(c1)c(=O)c(C(=O)c1ccc(F)cc1)cn2CC(=O)Nc1ccc2c(c1)OCO2 | inactive: -0.605%
76 | O=S1(=O)c2ccccc2N(Cc2ccc(Cl)cc2)c2ccccc21 | inactive: -5.1%
77 | CCc1c(C)nc2nncn2c1NCc1ccccc1 | inactive: -22.2%
78 | COc1ccc(S(=O)(=O)N2CCN(c3cccc(C)c3C)CC2)c2ccccc12 | inactive: -5.92%
79 | O=C(CCCCCn1c(=O)c2sccc2n(Cc2ccc(Cl)cc2)c1=O)NCc1ccc2c(c1)OCO2 | inactive: -21.5%
80 | Cc1ccc(S(=O)(=O)N(CC(=O)NCCSc2ccc(Cl)cc2)c2ccccc2C)cc1 | inactive: 21.7%
81 | COc1ccc(Cl)cc1C(=O)Nc1nnc2n1CCS2 | inactive: 17.5%
82 | Cc1ccc(NC(=O)C2CCN(c3nnc(C)c4c(C)n(-c5ccccc5)nc34)CC2)c(Cl)c1 | inactive: -9.01%
83 | Cc1cc(Br)ccc1NC(=O)c1sc2nc3n(c(=O)c2c1C)CCCC3 | inactive: 0.113%
